One experiment relates to HSkMC. The experiment in a line: cytotoxicity call (relative viability < 0.9). The note with it: 10 µM.
The test system of a further experiment is HepG2. Description: cytotoxicity call (relative viability < 0.9). The note with it: 10 µM.
The subject of a further experiment is S. aureus RN4220. The experiment in a line: growth inhibition call (relative growth <= 0.2). The note with it: 50 µM.

The other results are listed elsewhere or left out.

For the compound `C[C@@H]1CCCCO[C@@H](CN(C)Cc2ccc3c(c2)OCO3)[C@@H](C)CN([C@H](C)CO)C(=O)c2cc(NC(=O)NC3CCCCC3)ccc2O1`, the cytotoxicity call in the experiment with HSkMC and with HepG2 was “inactive” in each case. Moreover, the growth inhibition call in the experiment on S. aureus RN4220 was “inactive”.
For the compound `C[C@@H]1CN([C@H](C)CO)C(=O)c2cccc(NC(=O)c3ccc(-c4nccs4)cc3)c2O[C@H]1CN(C)CC1CCCCC1`, the cytotoxicity call in the experiment with HSkMC was “inactive”. Further, the cytotoxicity call with HepG2 is “active”. For the same compound, in the experiment with S. aureus RN4220, the growth inhibition call was “inactive”.
With `Cc1cccc(S(=O)(=O)N2C[C@H](O)COC[C@H]3O[C@H](CC(=O)N4CCN(C)CC4)CC[C@@H]32)c1`, the cytotoxicity call with HSkMC and in the experiment with HepG2 was “inactive” each time. Further, the growth inhibition call with S. aureus RN4220 was “inactive”.
Take `C[C@H](NC(=O)N(C)C[C@@H]1OCc2ccccc2-c2c(n(C)c3ccccc23)C(=O)N([C@@H](C)CO)C[C@@H]1C)c1ccccc1`: the cytotoxicity call with HSkMC and in the experiment with HepG2 was “inactive” throughout. In the experiment with S. aureus RN4220, the growth inhibition call was “inactive”.
Consider `C[C@@H]1CN([C@@H](C)CO)C(=O)Cc2cc(NC(=O)CCC(F)(F)F)ccc2O[C@@H]1CN(C)S(=O)(=O)c1cn(C)cn1`, for which the cytotoxicity call in the experiment with HSkMC and in the experiment on HepG2 was “inactive” each time. Also, in the experiment on S. aureus RN4220, the growth inhibition call was “inactive”.
Regarding `COc1ccc2c3c([nH]c2c1)[C@H](CO)N(C[C@]13CN(C1)S(=O)(=O)C)C(=O)C1CC1`, the cytotoxicity call in the experiment on HSkMC and with HepG2 was “inactive” each time. The growth inhibition call in the experiment with S. aureus RN4220 was “inactive”.
With `Cc1noc(C)c1NC(=O)N(C)C[C@H]1Oc2ccc(NC(=O)CCCN(C)C)cc2C(=O)N([C@@H](C)CO)C[C@@H]1C`, the cytotoxicity call with HSkMC and in the experiment on HepG2 was “inactive” in each case. The growth inhibition call in the experiment on S. aureus RN4220 was “inactive”.
Turning to `C[C@H](CO)N1C[C@H](C)[C@H](CN(C)Cc2ccc(Cl)c(Cl)c2)Oc2ccc(NC(=O)Cc3cn(C)c4ccccc34)cc2CC1=O`, the cytotoxicity call in the experiment with HSkMC was “inactive”. Further, the cytotoxicity call in the experiment with HepG2 was “active”. In addition, the growth inhibition call with S. aureus RN4220 was “inactive”.
As for `C[C@@H]1CN([C@H](C)CO)C(=O)c2cc(NC(=O)Nc3ccc4c(c3)OCO4)ccc2O[C@@H](C)CCCCO[C@@H]1CN(C)Cc1ccc2c(c1)OCO2`, the cytotoxicity call with HSkMC was “inactive”. For the same compound, in the experiment on HepG2, the cytotoxicity call is “active”. The growth inhibition call with S. aureus RN4220 is “inactive”.
In the case of `COc1cc(N2CCC(N)CC2)ccc1Nc1ncc(Cl)c(-c2c[nH]c3ccccc23)n1`, the cytotoxicity call in the experiment on HSkMC and in the experiment on HepG2 was “active” in each case. For the same compound, the growth inhibition call in the experiment with S. aureus RN4220 was “active”.
For `C[C@@H]1CN([C@H](C)CO)C(=O)c2cc(NS(C)(=O)=O)ccc2O[C@H]1CN(C)Cc1ccc(C(=O)O)cc1`, the cytotoxicity call in the experiment on HSkMC and with HepG2 was “inactive” in each case. Further, in the experiment with S. aureus RN4220, the growth inhibition call was “inactive”.
For the compound `Cc1noc(C)c1S(=O)(=O)Nc1ccc2c(c1)CC(=O)N([C@@H](C)CO)C[C@H](C)[C@H](CN(C)S(=O)(=O)c1c(C)noc1C)O2`, the cytotoxicity call in the experiment on HSkMC and in the experiment with HepG2 was “inactive” in each case. Moreover, the growth inhibition call in the experiment on S. aureus RN4220 is “inactive”.
With `C[C@H](CO)N1C[C@H](C)[C@H](CN(C)Cc2ccc(C(=O)Nc3ccccc3N)cc2)Oc2ccc(NS(=O)(=O)c3ccc(Cl)cc3)cc2C1=O`, the cytotoxicity call in the experiment with HSkMC and in the experiment with HepG2 was “inactive” in each case. In the experiment on S. aureus RN4220, the growth inhibition call is “inactive”.
Take `C[C@H]1CN([C@@H](C)CO)C(=O)CCCn2nncc2CO[C@H]1CN(C)C(=O)Nc1ccc(N2CCCCC2)cc1`: the cytotoxicity call in the experiment with HSkMC and in the experiment with HepG2 was “inactive” throughout. In addition, in the experiment on S. aureus RN4220, the growth inhibition call is “inactive”.
Take `COc1ccc2c3c(n(c2c1)C)[C@@H](CO)N(C[C@]13CN(C1)C(=O)c1ccncc1)C(=O)C1CCOCC1`: the cytotoxicity call in the experiment on HSkMC and in the experiment on HepG2 was “inactive” each time. Further, the growth inhibition call in the experiment on S. aureus RN4220 is “inactive”.
On to `COc1ccc(COC[C@]23N=C4SCCCN4[C@H](c4ccccc4O2)[C@H]3COC(=O)c2ccccc2)cc1`, for which the cytotoxicity call with HSkMC and with HepG2 was “inactive” in each case. The growth inhibition call in the experiment on S. aureus RN4220 is “inactive”.
In the case of `Cc1ccc(S(=O)(=O)N(C)C[C@@H]2Oc3ncc(C#CCC(C)C)cc3C(=O)N([C@@H](C)CO)C[C@H]2C)cc1`, the cytotoxicity call with HSkMC is “inactive”. Moreover, the cytotoxicity call in the experiment with HepG2 was “active”. Further, the growth inhibition call in the experiment with S. aureus RN4220 was “inactive”.
`N#Cc1ccc(-c2ccccc2F)o1`: the cytotoxicity call with HSkMC and in the experiment on HepG2 was “inactive” in each case. Further, the growth inhibition call with S. aureus RN4220 is “inactive”.
As to `C[C@@H]1CN([C@H](C)CO)C(=O)Cc2cc(NC(=O)Nc3cccc4ccccc34)ccc2O[C@H]1CN(C)Cc1ccc(Oc2ccccc2)cc1`, the cytotoxicity call in the experiment with HSkMC and in the experiment on HepG2 was “inactive” in each case. Also, the growth inhibition call in the experiment on S. aureus RN4220 was “inactive”.
For `C[C@@H]1CN([C@H](C)CO)C(=O)Cc2cc(NC(=O)Cn3cnnn3)ccc2O[C@@H]1CN(C)C(=O)NC1CCCCC1`, the cytotoxicity call with HSkMC and with HepG2 was “inactive” each time. The growth inhibition call in the experiment with S. aureus RN4220 was “inactive”.
Consider `Cc1ccnc(NC(=O)c2cc3sc4ccccc4c3s2)c1`, for which the cytotoxicity call with HSkMC and in the experiment with HepG2 was “inactive” throughout. For the same compound, the growth inhibition call with S. aureus RN4220 was “inactive”.
On to `COC(=O)C[C@@H]1C(=O)NCCN1C(=O)NS(=O)(=O)c1ccc(C)cc1`, for which the cytotoxicity call in the experiment on HSkMC and in the experiment on HepG2 was “inactive” in each case. For the same compound, the growth inhibition call with S. aureus RN4220 is “inactive”.
For the compound `O=C1Nc2ccccc2O[C@@H]1CCO`, the cytotoxicity call in the experiment on HSkMC and in the experiment with HepG2 was “inactive” each time. Also, in the experiment on S. aureus RN4220, the growth inhibition call is “inactive”.
On to `C[C@@H]1CCCCO[C@@H](CN(C)S(=O)(=O)c2ccc(Cl)cc2)[C@H](C)CN([C@H](C)CO)C(=O)c2cc(NC(=O)Nc3ccc(C(F)(F)F)cc3)ccc2O1`, for which the cytotoxicity call with HSkMC and in the experiment on HepG2 was “inactive” throughout. Further, the growth inhibition call with S. aureus RN4220 is “inactive”.
Consider `C[C@@H]1CN([C@H](C)CO)C(=O)c2cc(NC(=O)Nc3ccc(C(F)(F)F)cc3)ccc2O[C@@H](C)CCCCO[C@@H]1CN(C)S(=O)(=O)c1ccc(F)cc1`, for which the cytotoxicity call with HSkMC and with HepG2 was “inactive” throughout. Moreover, the growth inhibition call with S. aureus RN4220 is “inactive”.
As for `C#CCN1CCS(=O)(=O)CC1`, the cytotoxicity call in the experiment on HSkMC (human skeletal muscle cells) and in the experiment on HepG2 was “inactive” each time. In addition, the growth inhibition call with S. aureus RN4220 was “inactive”.
